Assay results as given in ChEMBL document CHEMBL1201862, “PubChem BioAssay data set” (2004).
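Dose response: 5 concentrations. Exposure: 48 h. Format: 96-well plates. Endpoint: linear interpolation; highest concentration if not reached. Abbreviation: GI50, concentration required for 50% inhibition of growth.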 Activity calls are given as the source filed them. No stated cut-off is given here; in the data, active = GI50 up to about 1.1 µM and inactive = higher.

Test system: NCI-H322M
Test: NCI-60 cell line screen, 48 h

Compound | GI50
Cc1ccc(S(=O)(=O)Nc2cc(O)nc3c2CCC3)cc1 | inactive: > 100 µM
COc1ccc(-c2cc(O)c3cc(OC)ccc3n2)cc1 | inactive: > 100 µM
CC(C)C(=O)C(C)(C)CCc1ccccn1 | inactive: > 100 µM
O=C1c2ccccc2C(=O)c2c(NC(=O)c3ccc4c5c(ncnc35)-c3ccccc3C4=O)cccc21 | inactive: > 100 µM
Cn1c2ccccc2c(=O)c2ccc(Cl)cc21 | inactive: > 10 µM
CCCn1c(SCC)c2ccccc2c1-c1nc(F)nc(F)n1 | inactive: > 100 µM
Cc1ccc(-n2nnc(C#N)c2O)cc1 | inactive: > 100 µM
CCOP(=O)(OCC)/C(C#N)=C/c1cccn1N(C)C | inactive: > 100 µM
CCN(CC)c1c(C(=O)/C=C/c2ccccc2)c(-c2ccccc2)nn(C)c1=O | inactive: 5.68 µM
COc1ccc(NCc2cnc3nc(N)nc(N)c3c2C)cc1 | inactive: 6.04 µM
Cc1ccc(C)c(COCCOCn2c(=O)[nH]c(=O)c3cc(Br)ccc32)c1 | inactive: > 100 µM
O=C1C(NS(=O)(=O)c2ccccc2)=C(N(Cc2ccccc2)Cc2ccccc2)C(=O)c2ccccc21 | inactive: 51.1 µM
CCOC1=C/C(=N\Nc2ccc([N+](=O)[O-])cc2)CCC1 | inactive: > 100 µM
C(=C\c1cccs1)/c1cccc(/C=C/c2cccs2)n1 | inactive: 27.9 µM
NC(=O)COC(=O)c1c(Cl)nc2sccn12 | inactive: > 100 µM
CCC(c1ccc(N(C)C)cc1)C1NC(=S)NC1=O (configuration not stated) | inactive: > 100 µM
Cc1ccc(S(=O)(=O)NC(=O)NC(CC(N)=O)C(=O)O)cc1 (configuration not stated) | inactive: > 100 µM
COc1cccc2c1C(=O)c1ccc3cc(CO)cc(O)c3c1C2=O | active: 1.05 µM
CC1CN(C)c2ccccc2N=C1NN (configuration not stated) | inactive: > 100 µM
O=C1CCC(=O)c2ccccc2N1 | inactive: > 100 µM
CCCCc1ccc(Nc2nc(Cl)c3c(ncn3COCCOC(C)=O)n2)cc1 | inactive: 15.7 µM
Cc1cc2cc3ccccc3cc2c(=O)[nH]1 | inactive: > 10 µM
COc1cc(C2SCC(=O)N2c2ccc(-n3c(-c4ccccc4)nc4ccccc4c3=O)cc2)ccc1O (configuration not stated) | inactive: > 100 µM

Compound | GI50
COc1cc([C@@H]2OC(=O)C3C2C(=O)O[C@H]3c2cc(OC)c(OC)c(OC)c2)cc(OC)c1OC (some centres not stated) | inactive: > 100 µM
Cc1cc2ncn(CC(=O)O)c2cc1C | inactive: > 100 µM
Cc1ccc(C(=O)Nc2ccc(CP(=O)(O)O)cc2CP(=O)(O)O)cc1NC(=O)Nc1cc(C(=O)Nc2ccc(CP(=O)(O)O)cc2CP(=O)(O)O)ccc1C | inactive: > 100 µM
CC1=NN2C(c3ccc(C)cc3)=CSC2=NC(C)(C)C1 | inactive: > 100 µM
CCCN(CCCCC(NC(C)=O)C(=O)NCc1ccccc1)C(=O)N(CCCl)N=O (configuration not stated) | inactive: > 100 µM
[N-]=[N+]=NC1=C(c2ccccn2)C(=O)c2cccc3cccc1c23 | inactive: 65.3 µM
O=C1[C@H]2ON(c3ccccc3)C(c3ccccc3)[C@H]2C(=O)N1c1ccc(Cc2ccc(N3C(=O)[C@@H]4ON(c5ccccc5)C(c5ccccc5)[C@@H]4C3=O)cc2)cc1 (some centres not stated) | inactive: > 100 µM
Cc1ccc(S(=O)(=O)NC2=NS(=O)(=O)c3cc(C)c(Cl)cc3S2)cc1 | inactive: 46.6 µM
Nc1nc(-c2ccco2)cc(-c2ccc(CO)o2)n1 | inactive: > 100 µM
Cc1ccc(/N=N/C2S/C(=C(\C#N)c3nc4ccccc4[nH]3)N(c3ccccc3)C2=O)cc1 (configuration not stated) | inactive: > 100 µM
COC(=O)C[C@H]1CCC2(OCCO2)[C@]1(C)C(=O)OC | inactive: > 100 µM
CC1(C)N=C(N)N=C(N)N1c1ccc(CCCCc2ccc(Cl)cc2Cl)cc1 | active: 0.957 µM
CC(=O)C1C(=O)C(C(C)=O)C2C3C=CC(C3)C12 (configuration not stated) | inactive: > 100 µM
Nc1nnc2oc3ccc4ccccc4c3cc1-2 | inactive: 26.1 µM
C=C1C(=O)[C@@]23CC[C@@H]4[C@@]5(C)CCC[C@@]4(OC5=O)[C@@]2(C)CC[C@@H]1C3 | inactive: 4.69 µM
COC1(OC)CC(CO)(CNc2nc(N)nc(Cl)c2/C=N\O)C1 | inactive: 35.6 µM
O=C1NC2C(O)CCCCC2C12CCCCC2 (configuration not stated) | inactive: > 100 µM
C=CO/N=[N+](\[O-])N(CC)CC | inactive: > 100 µM
COc1ccc(-c2cc(-c3ccc(Nc4ccnc5cc(C(F)(F)F)ccc45)cc3)[nH]c(=O)c2C#N)c2ccccc12 | inactive: > 80.7 µM
COc1ccc2ccccc2c1CN1CCOCCOCCN(Cc2c(OC)ccc3ccccc23)CCOCCOCC1 | inactive: > 71.6 µM
CC(=O)OC1=CC2=CC[C@H]3[C@@H]4CCC(=O)[C@@]4(C)CC(=O)[C@]3(S)[C@@]2(C)CC1 | inactive: > 100 µM
CCOC(=O)C(NC(=O)c1ccccc1)(N1CCN(c2cc3c(cc2F)c(=O)c(C(=O)O)cn3CC)CC1)C(F)(F)F (configuration not stated) | inactive: 50.6 µM
CNC(=S)NNc1ncnc2c1c(-c1ccc(Cl)cc1)cn2-c1ccc(C)cc1 | inactive: 10.2 µM

Compound | GI50
COC(=O)C(CCc1ccccc1I)C1=CCC2(CC1)OCCO2 (configuration not stated) | inactive: 48.9 µM
CC1=NOC2(C1)/C(=N/O)CCC/C2=N\O (configuration not stated) | inactive: 95.3 µM
COc1ccc(C2C(Cl)C(=O)N2NC(=O)c2ccc(N)cc2)cc1OC (configuration not stated) | inactive: 14.7 µM
COc1cccc(N2N=C3c4ccccc4-n4c(nc5ccccc54)C3C2N)c1 (configuration not stated) | inactive: > 100 µM
O=C(Nc1ccc(Cl)c(Cl)c1)N1N=C2c3ccccc3CCC2C1c1ccc(Cl)cc1 (configuration not stated) | inactive: > 100 µM
OCC1OC(c2ccccc2)CC1O (configuration not stated) | inactive: > 100 µM
COC1OC2COC(C)(C)OC2C(OC(C)=O)C1NC(=O)N(CCCl)N=O (configuration not stated) | inactive: > 100 µM
Cc1c2n(c(=O)[nH]c1=O)C1OC(CO)C(N=[N+]=[N-])C1O2 (configuration not stated) | inactive: > 100 µM
Cc1nc(C)c(N2CCN(C(=O)O)CC2)c(O)n1 | inactive: > 100 µM
CCCCCCCCCCCCCCCCCCOCC(O)COP(=O)(O)OCC1OC(n2ccc(N)nc2=O)C(O)C1O (configuration not stated) | inactive: 19.8 µM
Cc1nnc2n1-c1ccccc1-c1[nH]c3ccccc3c1C2 | inactive: > 100 µM
N#CC(NNC(=O)Cc1ccccc1)c1ccc([N+](=O)[O-])cc1 (configuration not stated) | inactive: > 100 µM
CC[C@@]1(O)C(=O)OCc2c1cc1n(c2=O)Cc2c-1nc1ccccc1c2/C=N\NC(=O)C(C)N (some centres not stated) | inactive: 1.52 µM
CC[n+]1c(/C=C/c2ccc(N(CCCl)CCCl)cc2)ccc2cc(NC(=O)/C=C/c3ccccc3)ccc21 | active: 1 µM
N#CCN1CCOCCOCCN(CC#N)CCOCCOCC1 | inactive: > 100 µM
CCc1cc2c(oc3cc(C)ccc32)c(=O)n1C | inactive: > 10 µM
CC(=O)OCC1OC(n2c(-c3ccccc3)c(C(C)=O)c(-c3ccc(Cl)cc3)c(C#N)c2=S)C(OC(C)=O)C(OC(C)=O)C1OC(C)=O (configuration not stated) | inactive: > 100 µM
O=S(=O)(c1ccccc1)n1c(C(O)c2ccncc2)cc2ccccc21 (configuration not stated) | inactive: 53.8 µM
CC1(C)OCC2OC(n3cnc4c(N)nc(Cl)nc43)C(OS(C)(=O)=O)C2O1 (configuration not stated) | inactive: > 100 µM
FC(F)(F)c1ccc2nc(Nc3ccc(Cl)c(Cl)c3)c(-c3ccccc3)nc2c1 | inactive: 54.8 µM
CN1CCN(C(=S)N(C(=O)c2ccco2)C2CCCCC2)CC1 | inactive: > 100 µM
Cc1nc(=O)n2c(C)n[nH]c2c1C(=O)O | inactive: > 100 µM
CCN(CC)CCNc1ccc2nc(C)n3c4ccc(O)cc4c(=O)c1c23 | active: 0.513 µM

Compound | GI50
CC(=O)OCCOCn1c2ccccc2c2c3c(c4c5ccccc5n(COCCOC(C)=O)c4c21)C(=O)N(Cc1ccccc1)C3=O | inactive: > 100 µM
CCOC(=O)c1ccc(NC(NC(=O)CC)(C(F)(F)F)C(F)(F)F)cc1 | inactive: > 100 µM
CCN(CC)P1(=S)Oc2ccc3ccccc3c2-c2c(ccc3ccccc23)O1 | inactive: > 100 µM
O=C(Cc1ccc(O)c(O)c1)NCc1c[nH]c2ccccc12 | inactive: 69.8 µM
CCCCCCCCCCCNC=O | inactive: > 100 µM
Nc1nc(N)c(N=O)c(Nc2ccc(O)cc2)n1 | inactive: > 73.8 µM
CN(C)c1ccc(C(=NN)c2ccc(N(C)C)cc2)cc1 | inactive: 2.99 µM
C=CCC1=CC2(OC)C(=O)C(OC)(OC)C1C1C(OC)(OC)C(=O)C(OC)=CC12CC=C (configuration not stated) | inactive: > 100 µM
COc1ccc2c(c1)CC[C@@H]1C2CC[C@]2(C)C(=N\O)/C(=N/O)CC12 (some centres not stated) | inactive: 15.6 µM
CC1(C)OC(=O)C(=C2CCC(C(=O)Nc3cccc(C(F)(F)F)c3)N2)C(=O)O1 (configuration not stated) | inactive: > 100 µM
CCCCCN1C(=O)C(Cc2ccccc2)N=C(c2ccc(O)cc2)c2cc(Cl)ccc21 (configuration not stated) | inactive: 14.3 µM
CN(C)CCOc1cccc2c1C(=O)c1ccccc1C2=O | inactive: 10.5 µM
O=C(NN1C(=O)c2ccccc2C1=O)c1ccccc1Nc1ccccc1C(=O)NN1C(=O)c2ccccc2C1=O | inactive: > 100 µM
CC(=O)OCC1OC(Sc2ccccn2)C=CC1OC(C)=O (configuration not stated) | inactive: > 100 µM
C/C=C\C(CC(=O)NCCc1c[nH]c2ccccc12)CC(=O)OC (configuration not stated) | inactive: > 100 µM
CCOc1ccc(/N=C/c2ccnc3ccccc23)cc1 | inactive: 86.1 µM
COc1cc(C2c3cc4c(cc3OC3(OC)COC(=O)C23)OCO4)cc(OC)c1OC (configuration not stated) | active: 0.4 µM
NC(=S)Nc1ccc2c(c1)oc1ccccc12 | inactive: > 100 µM
O=C(C/C(=N\NC(=O)C[n+]1ccccc1)C(=O)Nc1nc2ccc([N+](=O)[O-])cc2s1)CC(c1ccccc1)c1c(O)c2ccccc2oc1=O (configuration not stated) | inactive: > 100 µM
O=C(N/N=C1\C(=O)N(c2nccs2)C(=O)C(=O)C1c1nc2ccccc2s1)c1ccccc1O (configuration not stated) | inactive: 36.8 µM
Cn1cc(NC(=O)Nc2cc(C(=O)Nc3cc(C(=O)Nc4ccc(S(=O)(=O)O)c5cc(S(=O)(=O)O)ccc45)n(C)c3)n(C)c2)cc1C(=O)Nc1cc(C(=O)Nc2ccc(S(=O)(=O)O)c3cc(S(=O)(=O)O)ccc23)n(C)c1 | inactive: > 100 µM
CC1(C)CCC[C@@]2(C)C1CCC1(C)C(CCc3ccoc3)/C(=C/OS(=O)(=O)O)CCC12 (some centres not stated) | inactive: > 100 µM
COc1ccc2c(c1)/C(=C\c1cccc(/C=C3/C(=O)Nc4ccc(OC)cc43)n1)C(=O)N2 | inactive: 4.3 µM
